According to patent publication US20240115550A1, “TREATMENT OF MENTAL DISORDERS” (GH Research Ireland Limited, priority 2022, published 2024):

Tested on: patients with treatment-resistant major depressive disorder (TRD)
Test: Phase 1/2 clinical trial of inhaled 5-MeO-DMT in TRD

Compound: COc1ccc2[nH]cc(CCN(C)C)c2c1 [5-MeO-DMT]
- SAEs (Part A): No SAEs were reported
- safety laboratory analyses, vital signs, psychiatric safety assessments, measures of cognitive function (Part A and Part B): No clinically significant changes
- patients with MADRS remission (Part A, 12 mg, n=4, day seven): 50%
- patients with at least one ADR (Part A, in both groups (12 mg and 18 mg), all mild, resolved spontaneously): 3 of 4
- SAEs (Part B): No SAEs were reported
